According to the supplement of paper PMC9174493:
This is one part of the list. Single values of this set are uncertain. Values with irradiation are relative to irradiated vehicle.

Experiments:
A549-Dual [1] = experiment: NF-kB reporter (SEAP) activity, viability-corrected, relative to vehicle (fold change vs vehicle); higher = more activation of STING-IRF / NF-kB immune response reporter; conditions: 10 µM
A549-Dual [2] = experiment: ISRE reporter (Lucia luciferase) activity, viability-corrected, relative to vehicle (fold change vs vehicle); higher = more activation of STING-IRF / NF-kB immune response reporter; conditions: 10 µM
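Wherever NF-kB reporter (SEAP) activity, viability-corrected, relative to vehicle is given: viability correction based on the alamar blue assay, with concentrations leaving 10% survival or less dropped.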

CN(C)CC1CCn2cc(c3ccccc32)C2=C(C(=O)NC2=O)c2cn(c3ccccc23)CCO1.Cl (stereo not drawn)
NF-kB reporter (A549-Dual [1]; irradiation: 8 Gy/4 fr): 0.756 | NF-kB reporter (A549-Dual [1]; irradiation: none): 0.67 | ISRE reporter (A549-Dual [2]; irradiation: 8 Gy/4 fr): 0.413 | ISRE reporter (A549-Dual [2]; irradiation: none): 0.366

CCN1CCCC1CNC(=O)c1cc(S(N)(=O)=O)ccc1OC (stereo not drawn) [Levosulpiride]
NF-kB reporter (A549-Dual [1]; irradiation: 8 Gy/4 fr): 0.606 | NF-kB reporter (A549-Dual [1]; irradiation: none): 0.737 | ISRE reporter (A549-Dual [2]; irradiation: 8 Gy/4 fr): 0.604 | ISRE reporter (A549-Dual [2]; irradiation: none): 0.608

CCCCC(=O)N(Cc1ccc(-c2ccccc2-c2nn[nH]n2)cc1)C(C(=O)O)C(C)C (stereo not drawn) [Valsartan]
NF-kB reporter (A549-Dual [1]; irradiation: 8 Gy/4 fr): 0.71 | NF-kB reporter (A549-Dual [1]; irradiation: none): 1.12 | ISRE reporter (A549-Dual [2]; irradiation: 8 Gy/4 fr): 0.517 | ISRE reporter (A549-Dual [2]; irradiation: none): 0.669

O=C([O-])CCC(=O)[O-].[Na+].[Na+] [Sodium succinate]
NF-kB reporter (A549-Dual [1]; irradiation: 8 Gy/4 fr): 0.976 | NF-kB reporter (A549-Dual [1]; irradiation: none): 0.926 | ISRE reporter (A549-Dual [2]; irradiation: 8 Gy/4 fr): 1.08 | ISRE reporter (A549-Dual [2]; irradiation: none): 0.896

NC(C=O)C(O)C(O)C(O)CO (stereo not drawn) [Glucosamine]
NF-kB reporter (A549-Dual [1]; irradiation: 8 Gy/4 fr): 0.611 | NF-kB reporter (A549-Dual [1]; irradiation: none): 0.559 | ISRE reporter (A549-Dual [2]; irradiation: 8 Gy/4 fr): 0.625 | ISRE reporter (A549-Dual [2]; irradiation: none): 0.499

CC1CNCCCN1S(=O)(=O)c1cccc2cncc(F)c12.Cl.O.O (stereo not drawn) [Ripasudil (K-115) hydrochloride dihydrate]
NF-kB reporter (A549-Dual [1]; irradiation: 8 Gy/4 fr): 1.97 | NF-kB reporter (A549-Dual [1]; irradiation: none): 0.884 | ISRE reporter (A549-Dual [2]; irradiation: 8 Gy/4 fr): 1.57 | ISRE reporter (A549-Dual [2]; irradiation: none): 1.04

CCC12CCCN3CCc4c(n(c5ccccc45)C(O)(C(=O)OC)C1)C32 (stereo not drawn) [Vincamine]
NF-kB reporter (A549-Dual [1]; irradiation: 8 Gy/4 fr): 0.822 | NF-kB reporter (A549-Dual [1]; irradiation: none): 0.847 | ISRE reporter (A549-Dual [2]; irradiation: 8 Gy/4 fr): 0.795 | ISRE reporter (A549-Dual [2]; irradiation: none): 0.701

CCC(Cc1c(I)cc(I)c(N)c1I)C(=O)O (stereo not drawn) [Iopanoic acid]
NF-kB reporter (A549-Dual [1]; irradiation: 8 Gy/4 fr): 1.62 | NF-kB reporter (A549-Dual [1]; irradiation: none): 0.876 | ISRE reporter (A549-Dual [2]; irradiation: 8 Gy/4 fr): 1.77 | ISRE reporter (A549-Dual [2]; irradiation: none): 0.91

CN(CCOc1ccc(CC2SC(=O)NC2=O)cc1)c1ccccn1.Cl (stereo not drawn) [Rosiglitazone HCl]
NF-kB reporter (A549-Dual [1]; irradiation: 8 Gy/4 fr): 0.627 | NF-kB reporter (A549-Dual [1]; irradiation: none): 0.915 | ISRE reporter (A549-Dual [2]; irradiation: 8 Gy/4 fr): 0.533 | ISRE reporter (A549-Dual [2]; irradiation: none): 0.686

Cc1cn(C2CC(N=[N+]=[N-])C(CO)O2)c(=O)[nH]c1=O (stereo not drawn) [Zidovudine]
NF-kB reporter (A549-Dual [1]; irradiation: 8 Gy/4 fr): 0.803 | NF-kB reporter (A549-Dual [1]; irradiation: none): 1.24 | ISRE reporter (A549-Dual [2]; irradiation: 8 Gy/4 fr): 0.665 | ISRE reporter (A549-Dual [2]; irradiation: none): 0.57

CCCSc1nc(NC2CC2c2ccc(F)c(F)c2)c2nnn(C3CC(OCCO)C(O)C3O)c2n1 (stereo not drawn) [Ticagrelor]
NF-kB reporter (A549-Dual [1]; irradiation: 8 Gy/4 fr): 0.659 | NF-kB reporter (A549-Dual [1]; irradiation: none): 0.808 | ISRE reporter (A549-Dual [2]; irradiation: 8 Gy/4 fr): 0.536 | ISRE reporter (A549-Dual [2]; irradiation: none): 0.637

CS(=O)(=O)c1ccc(C2=C(c3ccccc3)C(=O)OC2)cc1 [Rofecoxib]
NF-kB reporter (A549-Dual [1]; irradiation: 8 Gy/4 fr): 0.701 | NF-kB reporter (A549-Dual [1]; irradiation: none): 0.938 | ISRE reporter (A549-Dual [2]; irradiation: 8 Gy/4 fr): 0.6 | ISRE reporter (A549-Dual [2]; irradiation: none): 0.681

COc1ccc(OC)c(C(O)CNC(=O)CN)c1 (stereo not drawn) [Midodrine]
NF-kB reporter (A549-Dual [1]; irradiation: 8 Gy/4 fr): 0.874 | NF-kB reporter (A549-Dual [1]; irradiation: none): 1.5 | ISRE reporter (A549-Dual [2]; irradiation: 8 Gy/4 fr): 1.04 | ISRE reporter (A549-Dual [2]; irradiation: none): 1.06

[I-].[K+] [Potassium Iodide]
NF-kB reporter (A549-Dual [1]; irradiation: 8 Gy/4 fr): 0.823 | NF-kB reporter (A549-Dual [1]; irradiation: none): 0.954 | ISRE reporter (A549-Dual [2]; irradiation: 8 Gy/4 fr): 0.894 | ISRE reporter (A549-Dual [2]; irradiation: none): 0.785

CCn1nc(C(=O)O)c(=O)c2cc3c(cc21)OCO3 [Cinoxacin]
NF-kB reporter (A549-Dual [1]; irradiation: 8 Gy/4 fr): 0.924 | NF-kB reporter (A549-Dual [1]; irradiation: none): 0.962 | ISRE reporter (A549-Dual [2]; irradiation: 8 Gy/4 fr): 0.744 | ISRE reporter (A549-Dual [2]; irradiation: none): 0.547

Cc1cn(C2OC(CO)C(O)C2F)c(=O)[nH]c1=O (stereo not drawn) [Clevudine]
NF-kB reporter (A549-Dual [1]; irradiation: 8 Gy/4 fr): 0.734 | NF-kB reporter (A549-Dual [1]; irradiation: none): 1.03 | ISRE reporter (A549-Dual [2]; irradiation: 8 Gy/4 fr): 0.76 | ISRE reporter (A549-Dual [2]; irradiation: none): 0.789

CC1OC(O)C(O)C(O)C1O.O [L-Rhamnose monohydrate]
NF-kB reporter (A549-Dual [1]; irradiation: 8 Gy/4 fr): 0.632 | NF-kB reporter (A549-Dual [1]; irradiation: none): 0.601 | ISRE reporter (A549-Dual [2]; irradiation: 8 Gy/4 fr): 0.562 | ISRE reporter (A549-Dual [2]; irradiation: none): 0.607

CCOc1cc(CC(=O)NC(CC(C)C)c2ccccc2N2CCCCC2)ccc1C(=O)O (stereo not drawn) [Repaglinide]
NF-kB reporter (A549-Dual [1]; irradiation: 8 Gy/4 fr): 0.618 | NF-kB reporter (A549-Dual [1]; irradiation: none): 0.786 | ISRE reporter (A549-Dual [2]; irradiation: 8 Gy/4 fr): 0.793 | ISRE reporter (A549-Dual [2]; irradiation: none): 0.667

CC1(C(=O)O)CCC2(C)CCC3(C)C(=CC(=O)C4C5(C)CCC(OC6OC(C(=O)O)C(O)C(O)C6OC6OC(C(=O)O)C(O)C(O)C6O)C(C)(C)C5CCC43C)C2C1.N (stereo not drawn) [Ammonium Glycyrrhizate]
NF-kB reporter (A549-Dual [1]; irradiation: 8 Gy/4 fr): 0.887 | NF-kB reporter (A549-Dual [1]; irradiation: none): 0.832 | ISRE reporter (A549-Dual [2]; irradiation: 8 Gy/4 fr): 0.84 | ISRE reporter (A549-Dual [2]; irradiation: none): 0.67

CC(C)C(=O)OCC(=O)C12OC(C3CCCCC3)OC1CC1C3CCC4=CC(=O)C=CC4(C)C3C(O)CC12C (stereo not drawn) [Ciclesonide]
NF-kB reporter (A549-Dual [1]; irradiation: 8 Gy/4 fr): 0.603 | NF-kB reporter (A549-Dual [1]; irradiation: none): 1.01 | ISRE reporter (A549-Dual [2]; irradiation: 8 Gy/4 fr): 0.124 | ISRE reporter (A549-Dual [2]; irradiation: none): 0.363

C#CCC(Cc1cnc2nc(N)nc(N)c2n1)c1ccc(C(=O)NC(CCC(=O)O)C(=O)O)cc1 (stereo not drawn) [Pralatrexate]
NF-kB reporter (A549-Dual [1]; irradiation: 8 Gy/4 fr): 0.722 | NF-kB reporter (A549-Dual [1]; irradiation: none): 2.1 | ISRE reporter (A549-Dual [2]; irradiation: 8 Gy/4 fr): 0.282 | ISRE reporter (A549-Dual [2]; irradiation: none): 1.75

COCCOC(=O)C1=C(C)NC(C)=C(C(=O)OC(C)C)C1c1cccc([N+](=O)[O-])c1 (stereo not drawn) [Nimodipine]
NF-kB reporter (A549-Dual [1]; irradiation: 8 Gy/4 fr): 0.793 | NF-kB reporter (A549-Dual [1]; irradiation: none): 0.862 | ISRE reporter (A549-Dual [2]; irradiation: 8 Gy/4 fr): 0.8 | ISRE reporter (A549-Dual [2]; irradiation: none): 0.668

CC(=O)O.N=C(N)N/N=C/c1c(Cl)cccc1Cl [Guanabenz Acetate]
NF-kB reporter (A549-Dual [1]; irradiation: 8 Gy/4 fr): 0.794 | NF-kB reporter (A549-Dual [1]; irradiation: none): 1.13 | ISRE reporter (A549-Dual [2]; irradiation: 8 Gy/4 fr): 0.81 | ISRE reporter (A549-Dual [2]; irradiation: none): 0.943

CC(=O)NC(CS)C(=O)O (stereo not drawn) [Acetylcysteine]
NF-kB reporter (A549-Dual [1]; irradiation: 8 Gy/4 fr): 1.05 | NF-kB reporter (A549-Dual [1]; irradiation: none): 1.07 | ISRE reporter (A549-Dual [2]; irradiation: 8 Gy/4 fr): 1.01 | ISRE reporter (A549-Dual [2]; irradiation: none): 0.871

C#CC1(O)CCC2C3CCC4=CC(=O)CCC4C3CCC21CC (stereo not drawn) [Norgestrel]
NF-kB reporter (A549-Dual [1]; irradiation: 8 Gy/4 fr): 0.626 | NF-kB reporter (A549-Dual [1]; irradiation: none): 0.607 | ISRE reporter (A549-Dual [2]; irradiation: 8 Gy/4 fr): 0.451 | ISRE reporter (A549-Dual [2]; irradiation: none): 0.441

Cc1nc(C)c(C)nc1C.Cl [Ligustrazine hydrochloride]
NF-kB reporter (A549-Dual [1]; irradiation: 8 Gy/4 fr): 0.71 | NF-kB reporter (A549-Dual [1]; irradiation: none): 0.811 | ISRE reporter (A549-Dual [2]; irradiation: 8 Gy/4 fr): 0.81 | ISRE reporter (A549-Dual [2]; irradiation: none): 0.674

CS(=O)(=O)O.CS(=O)(=O)O.N=C(N)Nc1ccc(C(=O)Oc2ccc3cc(C(=N)N)ccc3c2)cc1 [Nafamostat Mesylate]
NF-kB reporter (A549-Dual [1]; irradiation: 8 Gy/4 fr): 0.794 | NF-kB reporter (A549-Dual [1]; irradiation: none): 1.34 | ISRE reporter (A549-Dual [2]; irradiation: 8 Gy/4 fr): 0.49 | ISRE reporter (A549-Dual [2]; irradiation: none): 1.14
